Source: the supplement of paper PMC6135742
Structures can show the parent of a compound that is named as a salt. ± gives the standard deviation of the averaged measurements. In all, about 2,600 compounds were measured (“total cell number (DAPI+ nuclei) relative to DMSO vehicle control”: median about -1.4, lowest 2% from about -23 on). This is one part of the list.

Each compound was assayed on jimpy (Plp1 jimpy) mouse iPSC-derived oligodendrocyte progenitor cells (assay: total cell number (DAPI+ nuclei) relative to DMSO vehicle control (SDs above negative control mean); higher = more surviving cells). Details: 10 µM; 3 days.

SMILES | total cell number
Cc1cc(Nc2cc(CN3CCOCC3)c3nc(C)c(Cc4ccc(Cl)cc4F)n3n2)n[nH]1 | -13.9
Nc1nnc(-c2cccc(Cl)c2Cl)c(N)n1 [Lamotrigine] | -1.75 ± 0.31
Oc1cc(O)cc(/C=C/c2ccc(O)c(O)c2)c1 [Piceatannol] | -8.4 ± 1.1
CCN1CCN(c2ccc(Nc3cc(N(C)C(=O)Nc4c(Cl)c(OC)cc(OC)c4Cl)ncn3)cc2)CC1 | -1.51
Nc1nc(=O)[nH]cc1F [Flucytosine] | 2.35
N=C(N)c1ccc(N=NNc2ccc(C(=N)N)cc2)cc1 [Diminazene Aceturate] | -2.28
C[C@H](CCC(=O)O)[C@H]1CC[C@H]2[C@@H]3C[C@H](O)[C@@H]4C[C@H](O)CC[C@]4(C)[C@H]3CC[C@]12C [Hyodeoxycholic acid (HDCA)] | -0.0458
NC(=O)Nc1sc(-c2ccc(F)cc2)cc1C(N)=O | -10.4
CC1(C)C(=O)N(CCN2CCC(C(=O)c3ccc(F)cc3)CC2)c2ccccc21 [LY-310,762 hydrochloride] | -4.62
CC(C)(C)OC(=O)N[C@H]1CCCCC/C=C\[C@@H]2C[C@@]2(C(=O)NS(=O)(=O)C2CC2)NC(=O)[C@@H]2C[C@@H](OC(=O)N3Cc4cccc(F)c4C3)CN2C1=O [Danoprevir (ITMN-191)] | -1.1
COc1ccnc2[nH]cc(C(=O)C(=O)N3CCN(C(=O)c4ccccc4)C[C@H]3C)c12 | -0.607
CCCC(=O)Nc1ccc(OCC(O)CNC(C)C)c(C(C)=O)c1 (centres undefined) [Acebutolol HCl] | -2.32
C[C@@H]1O[C@@H](OC[C@H]2O[C@@H](Oc3c(-c4ccc(O)c(O)c4)oc4cc(O)cc(O)c4c3=O)[C@H](O)[C@@H](O)[C@@H]2O)[C@H](O)[C@H](O)[C@H]1O [Rutin] | -0.749
CN1[C@@H]2CC[C@H]1C[C@@H](OC(c1ccccc1)c1ccccc1)C2 [Benztropine mesylate] | -3.27 ± 0.14
CO/N=C(\C(=O)N[C@@H]1C(=O)N2C(C(=O)O)=C(CSC(=O)c3ccco3)CS[C@H]12)c1csc(N)n1 [Ceftiofur HCl] | 0.0421
C/C(O)=C(\C#N)C(=O)Nc1ccc(C(F)(F)F)cc1 [Teriflunomide] | 0.229
COc1nc(C)cnc1NS(=O)(=O)c1cccnc1-c1ccc(-c2nnco2)cc1 [Zibotentan (ZD4054)] | 1.39
Nc1nccc2c1ncn2C1C=C(CO)C(O)C1O (centres undefined) [3-Deazaneplanocin A (DZNeP)] | -9.16
Cn1cc(/C=C/C(=O)c2cccc(F)c2)cc1/C=C/C(=O)NO | -3.97
N[C@@H](CC(=O)N1CCn2c(nnc2C(F)(F)F)C1)Cc1cc(F)c(F)cc1F [Sitagliptin phosphate monohydrate] | -1.17
Cn1cc(C2=C(c3cn(CCCSC(=N)N)c4ccccc34)C(=O)NC2=O)c2ccccc21 [Ro 31-8220 Mesylate] | -15.6
C[C@@H]1O[C@@H](O[C@H]2[C@H](Oc3cc(O)c4c(c3)O[C@H](c3ccc(O)cc3)CC4=O)O[C@H](CO)[C@@H](O)[C@@H]2O)[C@H](O)[C@H](O)[C@H]1O [Naringin] | -1.39
Cc1ccc(C(=O)C(C)CN2CCCCC2)cc1 (centres undefined) [Tolperisone HCl] | 0.936
CSc1nc(N)c2ncn([C@@H]3O[C@H](COP(=O)(O)OP(=O)(O)O)[C@H](O)C3O)c2n1 (some centres undefined) | -2.77
c1ccc(CN2CCC3(CCCc4ccccc43)CC2)cc1 [L-687,384 hydrochloride] | -2.42

SMILES | total cell number
CNCC[C@@H](Oc1ccccc1C)c1ccccc1 [Tomoxetine] | -0.828
CNCC[C@@H](Oc1ccccc1C)c1ccccc1 [Atomoxetine HCl] | -0.827
NS(=O)(=O)C#Cc1ccccc1 [Pifithrin-mu] | -3.18
Nc1c(S(=O)(=O)O)cc(Nc2ccc(Nc3nc(Cl)nc(Nc4cccc(S(=O)(=O)O)c4)n3)c(S(=O)(=O)O)c2)c2c1C(=O)c1ccccc1C2=O [Reactive Blue 2] | -0.98
C[C@@H](Oc1cc(-c2cnn(C3CCNCC3)c2)cnc1N)c1c(Cl)ccc(F)c1Cl | -27.1
COCCCOc1ccnc(C[S+]([O-])c2nc3ccccc3[nH]2)c1C (centres undefined) [Rabeprazole sodium] | -0.289
O=C(O)Cc1cc(I)c(Oc2ccc(O)c(I)c2)c(I)c1 [Tiratricol] | -0.51
Cc1cc(Nc2ncc(Cl)c(Nc3ccccc3S(=O)(=O)C(C)C)n2)c(OC(C)C)cc1C1CCNCC1 | -16.3
CCC(CC)(NC(=O)C(C)C)C(=O)N[C@@H](CCCN=C(N)N)C(=O)NC1(C(=O)NC(c2ccc(F)cc2)c2ccc(F)cc2)CCCC1 | -3.11
CCN(CC)CCCN(c1ccccc1)C1Cc2ccccc2C1 [Aprindine hydrochloride] | -1.55
COCCCOc1cc(C[C@@H](C[C@H](N)[C@@H](O)C[C@H](C(=O)NCC(C)(C)C(N)=O)C(C)C)C(C)C)ccc1OC [Aliskiren Hemifumarate] | -0.28
O=C(O)Cc1ccc(O)c(O)c1 [3,4-Dihydroxyphenylacetic acid] | -1.97
CCCc1nc2c(C)cc(-c3nc4ccccc4n3C)cc2n1Cc1ccc(-c2ccccc2C(=O)O)cc1 [Telmisartan] | 1.56
N=C(N)N1CCc2ccccc2C1 [Debrisoquin sulfate] | 1.95
Cc1ccc(C(=O)N(CCCN)[C@@H](c2nc3cc(Cl)ccc3c(=O)n2Cc2ccccc2)C(C)C)cc1 | -27.5
CC(=O)/N=c1/sc(S(N)(=O)=O)nn1C [Methazolamide] | 0.269 ± 2
CC1=CC(=O)c2ccccc2C1=O [Menadione] | -11.4
COc1cc2ncnc(Nc3ccc(F)c(Cl)c3)c2cc1NC(=O)/C=C/CN1CCCCC1 | -11.6
N=C(N)SCCN [2-(2-Aminoethyl)isothiourea dihydrobromide] | -2.29
CCCCC1C(=O)N(c2ccccc2)N(c2ccccc2)C1=O [Phenylbutazone] | -0.179 ± 1
Clc1ccccc1C(c1ccccc1)(c1ccccc1)n1ccnc1 [Clotrimazole] | 5.25 ± 1
NC(=O)NO [Hydroxyurea] | -2.26 ± 0.26
Clc1ccc(COC(Cn2ccnc2)c2ccc(Cl)cc2Cl)cc1 (centres undefined) [Econazole nitrate] | -0.691
CC(C)=CCC/C(C)=C/COc1ccc2ccc(=O)oc2c1 [Auraptene] | -2.06
COc1cc(CC(=O)O)ccc1O [4-Hydroxy-3-methoxyphenylacetic acid] | -1.87

SMILES | total cell number
CCOc1ncc(S(=O)(=O)N2CCN(CC)CC2)cc1-c1nc(=O)c2nn(CCOC)c(CC)c2[nH]1 [Gisadenafil besylate salt] | -0.843
CCCC(C(=O)OCCN(CC)CC)(c1ccccc1)c1ccccc1 [SKF-525A hydrochloride] | -5.13
CO[C@H]1C(=O)[C@]2(C)[C@@H](OC)C[C@H]3OC[C@@]3(OC(C)=O)[C@H]2[C@H](OC(=O)c2ccccc2)[C@]2(O)C[C@H](OC(=O)[C@H](O)[C@@H](NC(=O)OC(C)(C)C)c3ccccc3)C(C)=C1C2(C)C [Cabazitaxel] | -3.98
O=S(=O)(O)CCSSCCS(=O)(=O)O [Dimesna] | 1.49
N[C@@H](Cc1ccc(F)cc1)C(=O)O [p-Fluoro-L-phenylalanine] | -1.39
Nc1nccc2c1ncn2[C@@H]1O[C@H](CO)[C@@H](O)[C@H]1O [3-deazaadenosine] | -1.25
O=C(Nc1ccc2[nH]ncc2c1)C1CCC1 [Rhodblock 6] | -2.58
CCCCC#Cc1nc(NC)c2ncn([C@@H]3O[C@H](CO)[C@@H](O)[C@H]3O)c2n1 | -1.81
Cn1cnc(N)c2ncnc1-2 [3-Methyladenine] | 0.347
CC[C@]1(O)C[C@@H]2CN(CCc3c([nH]c4ccccc34)[C@@](C(=O)OC)(c3cc4c(cc3OC)N(C)[C@H]3[C@@](O)(C(=O)OC)[C@H](OC(C)=O)[C@]5(CC)C=CCN6CC[C@]43[C@@H]65)C2)C1 [Vinblastine sulfate salt] | -3.37
CC[C@]1(O)C[C@@H]2CN(CCc3c([nH]c4ccccc34)[C@@](C(=O)OC)(c3cc4c(cc3OC)N(C)[C@H]3[C@@](O)(C(=O)OC)[C@H](OC(C)=O)[C@]5(CC)C=CCN6CC[C@]43[C@@H]65)C2)C1 [Vinblastine] | -3.74
CCN(CCCc1ccccc1)CCCc1ccccc1 [Alverine Citrate] | 1.03
CN(C)CCN1C(=O)c2cccc3cc(N)cc(c23)C1=O [Amonafide] | -24
CCOc1ccc(Cc2cc([C@@H]3O[C@H](CO)[C@@H](O)[C@H](O)[C@H]3O)ccc2Cl)cc1 [Dapagliflozin] | 0.277
O[C@@H]1CO[C@H]2[C@@H]1OC[C@@H]2O [Isosorbide] | -0.864
COC1=C(OC)C(=O)c2ccccc2C1=O [2,3-Dimethoxy-1,4-naphthoquinone] | -9.97
COc1ccc(/C=C2\COc3ccc(C)cc3C2=O)cc1O | -7.57
Cc1c(O)cccc1C(=O)N[C@@H](CSc1ccccc1)[C@H](O)CN1C[C@H]2CCCC[C@H]2C[C@H]1C(=O)NC(C)(C)C [Nelfinavir mesylate hydrate] | -4.31
Cc1cccc(Nc2nc(-c3ccncc3)cs2)c1 | -7.35
CN(C)CCC(c1ccccc1)c1ccccn1 (centres undefined) [Pheniramine Maleate] | 1.68
CN(C)CCC(c1ccccc1)c1ccccn1 (centres undefined) [Pheniramine maleate] | -0.942
Nc1ccn([C@@H]2O[C@H](CO)[C@@H](O)[C@H]2O)c(=O)n1 [Cytidine] | -1.69
CCCCC[C@H](CC(=O)NO)C(=O)N[C@H](C(=O)N1CCC[C@H]1CO)C(C)C [Actinonin] | -1.52
Cc1cc(C)cc(NC(=O)Cc2ccc(OC(C)(C)C(=O)O)cc2)c1 [Efaproxiral Sodium] | 1.06
